{"source": "paper PMC12136788", "binders": {"B1": {"name": "chr1:163112212:163112213:-_ENSG00000143248_ENST00000313961|hu_hu|hu_hu_hu_mus_False|58_98 (ssRNA)", "RNA": "GGGAGUUCUACAGUCCGACGAUCUUUUAUUAUCAGUAAGCAUGAGUUACAUACUAGGCAAAGUAUUGGAUACAAUAUUCUAAAGAUAAACACUAUUGGUCCAGAAUUUAAAACUUUAUGAGCGAAGUGCUGGCACAGGACUUACAACAGAGGAUUGAGCAUCA"}, "B2": {"name": "chr1:169356373:169356374:+_ENSG00000117475_ENST00000367808|hu_mus|FALSE|FALSE (ssRNA)", "RNA": "GGGAGUUCUACAGUCCGACGAUCAGCAAUGAGCUCCCCCUGGCAGUGAUUGCAGCAAUUGAAAGUUAUAUUUUCAUAUCUGGUAUAGGGAUGGAAACGUCCAAUAUUUUUCUUUGUAGUGAGUAAUGUGGUUGGUGAAGAUUCCAACAGAGGAUUGAGCAUCA"}, "B3": {"name": "chr2:217001886:217001887:+_ENSG00000079246_ENST00000392132|hu_hu|motif|central (ssRNA)", "RNA": "GGGAGUUCUACAGUCCGACGAUCAUGAGGAAAAGCCACGCCGACUUGAGGAUUAGCUCUUUUGUCAUAAGCAUAUCGAACGGUGGCCACCAUGUCUAAGUCAUCCAAAGCAUGAAUCAGGGAGGAAAGUGCAACUGCAGCUGCCAACAGAGGAUUGAGCAUCA"}, "B4": {"name": "chr12:125510211:125510212:+_ENSG00000184992_ENST00000341446|hu_hu|FALSE|FALSE (ssRNA)", "RNA": "GGGAGUUCUACAGUCCGACGAUCUUACUGUACAACUAAAUAUGGUUAUAUCCUUUGUUUAAAAAAUAUUUUUUCCCCCACUAAUUACACUUCGUGUGUAGUUCCACGUCAAUGAUCUUUCCGCUCUUCUGGGAAUGUGUCCUACAACAGAGGAUUGAGCAUCA"}, "B5": {"name": "chr17:66333223:66333224:-_ENSMUSG00000034647_ENSMUST00000038116|mus_hu|FALSE|FALSE (ssRNA)", "RNA": "GGGAGUUCUACAGUCCGACGAUCAACAUCUCCUAGGACAAAAGUAUUUUCUGUAUCUUUUGUAGAUUCAUUAUCAGUAUCUAAAGCAGAACUAAUAAUCUGAACUGCAUUUUUUUGUUGUAAAAUACCUGGCUCUUGAUUAGCCAACAGAGGAUUGAGCAUCA"}, "B6": {"name": "152021145_152023285_379_CDS_ENSMUSG00000025437_ENSMUST00000117492|mouse|control|control (ssRNA)", "RNA": "GGGAGUUCUACAGUCCGACGAUCAAGAGUGGUGAGGUUCACAGUUAGAUAAUGCUUUGUCUCCUGCGAGUGUAUGGUGCUGUGGUCCACUUGCGACUCCCCGCAGCCAACAUAGGAGCACCUAUUCUCCAGGCACGCCCACAGCAACAGAGGAUUGAGCAUCA"}, "B7": {"name": "chr7:135612270:135612271:-_ENSG00000105887_ENST00000393085|hu_mus|hu_hu_hu_mus_False|18_38 (ssRNA)", "RNA": "GGGAGUUCUACAGUCCGACGAUCGUUUUUUUCUGAGAUGUUAAAUAGUACUUCAGUGGAAAACAAAACUUAACCUUUUAUUAAUGCGUGUUGUACCAGAAAGCAAAAUUUUAGCUUGCUUCCUUUAAAAAUAUUAACAUUAAGCAACAGAGGAUUGAGCAUCA"}, "B8": {"name": "chr7:23164667:23164668:+_ENSG00000122550_ENST00000322275|hu_hu|FALSE|FALSE (ssRNA)", "RNA": "GGGAGUUCUACAGUCCGACGAUCCACAGGUUCAAUCUGAUAUUGGUUUGCUGCAUCCAGCAAAGACUGAACAUUGUUGCUAUUCACGGAAAUUCUAGCAGUAUAAGCAAAUUCCACCAGUUGUUCAAUAAUAUCAGGUUCAGCCAACAGAGGAUUGAGCAUCA"}, "B9": {"name": "chrX:20248820:20248821:+_ENSMUSG00000001924_ENSMUST00000001989|mus_mus|mus_mus_mus_hu_True|68_88 (ssRNA)", "RNA": "GGGAGUUCUACAGUCCGACGAUCGGCGAAGUCCGUCACCACAAAGUCAGGCUCUACCAGUGAGGCCGGCAAGGAUUUAAAGCUAAUCUUCUUAGGUACUUUGACCUGACUGACGAUGCCUCCACGGAUGUAGUCGGAGAAGUUCAACAGAGGAUUGAGCAUCA"}, "B10": {"name": "chr11:77336104:77336105:-_ENSG00000074201_ENST00000525064|hu_mus|hu_hu_hu_mus_False|88_88 (ssRNA)", "RNA": "GGGAGUUCUACAGUCCGACGAUCCUCACACAUUGCUGUGAACAUCGCCUCCAACGCUGACUUAUCACUGGGCACAAAUCGAAAUUCAGAAAUGGGUUCAACAUCAUCAUUGUCUUCCUCAUCUUCAUCAGAGAGAGGUUCUUUCAACAGAGGAUUGAGCAUCA"}, "B11": {"name": "chr9:121621712:121621713:+_ENSMUSG00000032526_ENSMUST00000035113|mus_mus|motif|central (ssRNA)", "RNA": "GGGAGUUCUACAGUCCGACGAUCCUUUGUGAGACUGCUUGUGUUGGCGUCUGCGAUGGUAGCUAAAUAAAUGAGAUUUCGGUGUAACACAUGCUGAUACUGGACGCACUCGUUCGCUCGGCCCUUAUUCUGAUACUCCACGAUCAACAGAGGAUUGAGCAUCA"}, "B12": {"name": "59334095_59334215_266_5pUTR_ENSMUSG00000025234_ENSMUST00000171975|mouse|control|control (ssRNA)", "RNA": "GGGAGUUCUACAGUCCGACGAUCUCCUCGCUGCACUCCUCGUCCUCGUCGAACUCGUAGUUGUAGCCCUCGUCCGAGUCCAUGGCGCGACGCGCGCGGGCCCGGCAGACGCUGGCCGCGGCGCGGAGAGGGCGGGGACGCCGACAACAGAGGAUUGAGCAUCA"}, "B13": {"name": "chr22:36164377:36164378:-_ENSG00000100320_ENST00000405409|hu_mus|FALSE|FALSE (ssRNA)", "RNA": "GGGAGUUCUACAGUCCGACGAUCACGGCCCUCUACCACGGUGCCGUGCAAUUUCUCCCUGGCCCUGUCUGCAUCAGCACUAUUCUCGAAAGUUACGAACCCGAAUCCCUUGGAGCCGCGCUCAUUAAAGAUUAUUUCCACAUCCAACAGAGGAUUGAGCAUCA"}, "B14": {"name": "chr7:23387248:23387249:-_ENSG00000136231_ENST00000258729|hu_mus|FALSE|FALSE (ssRNA)", "RNA": "GGGAGUUCUACAGUCCGACGAUCGAUCUUCAAGGGAAUCUCCUCUGUGAAUUUUAUAUCUUGAGCUUCCUUAUGCAUAAUCUCCAGAAUAGACUUACAAGCUGCAGAGGUGCCUUCAGGGGUAGAGAGGAUAGUAAUGGACUUCAACAGAGGAUUGAGCAUCA"}, "B15": {"name": "chr3:33945423:33945424:+_ENSMUSG00000027680_ENSMUST00000167354|mus_hu|motif|central (ssRNA)", "RNA": "GGGAGUUCUACAGUCCGACGAUCGGUAUUUUUUUUGACAGUUUUAUUUUGAUUGACAGGCCGAAGUCGUUCAAAUGUGACGGUUUCAUUGUAAGUAGCGUCACAAGCAGCAUAUUCAAUGACAUAAAAUUCUCCUUUCAUCAUCAACAGAGGAUUGAGCAUCA"}, "B16": {"name": "chr4:17488853:17488854:-_ENSG00000151552_ENST00000428702|hu_hu|motif|central (ssRNA)", "RNA": "GGGAGUUCUACAGUCCGACGAUCUAGGCUUCCUGAGCUCGGUCGGUUUUUCCCUGUGAUCCAGUCAUGGAAAGUUUCAACGGGGAAUUCUAAGGGUGUCCAGGAGCUGAAGUCAGCCUCAGGCAUUGAUUUCCUGUUCAUCGGCAACAGAGGAUUGAGCAUCA"}, "B17": {"name": "chr5:128440902:128440903:+_ENSG00000066583_ENST00000173527|hu_mus|hu_hu_hu_mus_True|1_38 (ssRNA)", "RNA": "GGGAGUUCUACAGUCCGACGAUCUUGAACGGUGCUGCCAAGUCCUUUGGGGUAUUGUUCCGUUAUGAUAACUGGAAUCCCUAAGAUCCGAGCUCCUUGCAACAAUCUCUGUCCCACACUAAUGAUGUCCCCAAAGUACUUGAUCAACAGAGGAUUGAGCAUCA"}, "B18": {"name": "chr16:10423590:10423591:+_ENSMUSG00000022503_ENSMUST00000023146|mus_mus|motif|central (ssRNA)", "RNA": "GGGAGUUCUACAGUCCGACGAUCUGGGAGUCCUGUGACUCAGAGAGUUCCUAGUCCCUUGGAUUCCAGGAAGCAGGCCCGGAGGGAUAGGUUCAAGGAGACAUUUUUAUUUUCUGAUGAAUGGCACCUGGAUGCAGAGCGCCCCAACAGAGGAUUGAGCAUCA"}, "B19": {"name": "76226851_76226971_1228_CDS_ENSG00000117054_ENST00000370834|human|control|control (ssRNA)", "RNA": "GGGAGUUCUACAGUCCGACGAUCAGUAGCUAACUGAUUUGCAAUAUCUCCAGCAAAUGCCUUUGCAAUAGAAGCAUAAUAGGUAUUUCGACGACCAGAAUCAACCUCCCAAGCUGCUCUCUGGUAACUCAUUCUAGCUAGUUCCAACAGAGGAUUGAGCAUCA"}, "B20": {"name": "chr5:37341331:37341332:-_ENSG00000113569_ENST00000381843|hu_mus|FALSE|FALSE (ssRNA)", "RNA": "GGGAGUUCUACAGUCCGACGAUCUGUCAGUGUAUUCGGCCGAGCUAAUGGCUGUCUAAACGGACAAGUGCUGAAAUACAGCCUUACACCUGCGUGAGUGACAGCCAGUAACUGACAGUCCAGGGAUUCAGAACUCUCAAUCACCAACAGAGGAUUGAGCAUCA"}, "B21": {"name": "8834627_8836091_1177_3pUTR_ENSMUSG00000021147_ENSMUST00000021572|mouse|control|control (ssRNA)", "RNA": "GGGAGUUCUACAGUCCGACGAUCUCACCACGAGCCGCUGGGUGGGGUGAGUGCAACAAUGUGUUAACUCCUGGUCAUGCCCUGUCAGGGAAUGAACGAGUUCAGAUGUCUCCACAUCAUACAGGUUGGCAGUUCUGUCCCAUGCAACAGAGGAUUGAGCAUCA"}, "B22": {"name": "chr5:22970553:22970554:+_ENSMUSG00000029004_ENSMUST00000094962|mus_mus|motif|central (ssRNA)", "RNA": "GGGAGUUCUACAGUCCGACGAUCAGCACUGGAAGUUUCAUCAAAAUUAGGAGUGGUAAAUAUGCCUACUUCGUUUUUGCGGAUGAGACCUGAUGGAGGAGGGGAUGCUGGAGGUGUUGGAGGAGGACGAGCACCAUAAUUAUGCAACAGAGGAUUGAGCAUCA"}}, "note": "This is one part of the list.", "data": [{"molecular_target": "T1, UNK ZnF1-3 (human, UniProt Q9C0B0 31-174)", "T1 sequence": "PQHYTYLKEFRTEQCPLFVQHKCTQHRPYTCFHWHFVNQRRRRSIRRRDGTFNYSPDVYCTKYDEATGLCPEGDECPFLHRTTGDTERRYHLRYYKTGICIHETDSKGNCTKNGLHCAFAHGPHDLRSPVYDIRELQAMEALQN", "assay": "nsRBNS (natural sequence RNA bind-n-seq); RBNS binding buffer (assumed for nsRBNS): 25 mM Tris pH 7.5, 150 mM KCl, 3 mM MgCl2, 0.01% Triton X-100, 500 ug/ml BSA, 20 U/ml SUPERase-In, 4 C; UNK is unkempt and MSI1 is Musashi-1; names of the RNAs are library labels; protein concentration not given here; high values mean tight binding", "units": {"binding signal": "enrichment R"}, "values": [{"binder": "B1", "binding signal": 1.42}, {"binder": "B2", "binding signal": 2.61}, {"binder": "B3", "binding signal": 1.63}, {"binder": "B4", "binding signal": 0.754}, {"binder": "B5", "binding signal": 0.719}, {"binder": "B6", "binding signal": 0.605}, {"binder": "B7", "binding signal": 0.634}, {"binder": "B8", "binding signal": 1.52}, {"binder": "B9", "binding signal": 0.897}, {"binder": "B10", "binding signal": 1.24}, {"binder": "B11", "binding signal": 0.693}, {"binder": "B12", "binding signal": 0.207}, {"binder": "B13", "binding signal": 1.19}, {"binder": "B14", "binding signal": 1.34}, {"binder": "B15", "binding signal": 0.595}, {"binder": "B16", "binding signal": 1.08}, {"binder": "B17", "binding signal": 0.59}, {"binder": "B18", "binding signal": 1.57}, {"binder": "B19", "binding signal": 0.967}, {"binder": "B20", "binding signal": 0.729}, {"binder": "B21", "binding signal": 0.851}, {"binder": "B22", "binding signal": 2.93}]}]}
